± gives the standard deviation of the averaged measurements. This is one part of the list.

This assay concerns PfAP2-LT AP2 domain (GST-tagged). The assay is described as follows: gcPBM binding intensity (ln(normalized median fluorescence intensity)); higher = stronger DNA binding. Put shortly: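 An Agilent 4 × 180k array carrying primer-extended double-stranded 36-bp intergenic genomic probes and negative controls received GST-tagged P. falciparum DNA-binding domains expressed in E. coli, about 25 μg on average, for 1 h. The binding buffer contained 1× PBS, 1% milk, 0.2 mg/ml BSA, 0.5% salmon testes DNA and 0.03% Triton X-100. Binding intensity is the top Masliner-normalised natural-log median intensity across replicate spots of either probe orientation, read after Alexa488 anti-GST antibody staining and a 488 nm scan.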
“TTGTTAATATGATAAAAGAGGAATATTCTCTTCCTA [GTGCAC_negctrl_site659]”: the “gcPBM binding intensity (ln)” value is 8.26 ± 0.37.

On to “TAAAAAAAAACTCATGCACACAATATTATGAAAAAG [CACACA_site665]”, for which the “gcPBM binding intensity (ln)” value was determined as 9.02 ± 0.45.

“TTATTTACAACTTCAAATTATGTGTAATACTACTAT [CACACA_negctrl_site741]”: the “gcPBM binding intensity (ln)” value is 8.73 ± 0.52.

Take “AAATATTATGTACGCACACACATTTTTAATATATAA [CACACA_site3851]”: the “gcPBM binding intensity (ln)” value came out at 9.19 ± 0.3.

Consider “AAATTAATGTATATGTGAAGCAAGGGATGCGGCAGA [CACACA_negctrl_site406]”, for which the “gcPBM binding intensity (ln)” value worked out at 9.12 ± 0.33.

In the case of “ATATATATATATATATAATATATAATATATATATAT [CACACA_negctrl_site96]”, the “gcPBM binding intensity (ln)” value worked out at 9.01 ± 0.11.

Consider CAATTATTGTAATGCATGCACTGAATATAAAAAGAA, for which the “gcPBM binding intensity (ln)” value is 9.02 ± 0.34.

On to “TTTATATGTATTAAGTGTACACATATAATGTATTTT [XGTACX_site16]”, for which the “gcPBM binding intensity (ln)” value stood at 8.83 ± 0.4.

As for “AACAAATAAAGCTATGACATGTTAAAATTGTTTCAC [XGTACX_negctrl_site67]”, the “gcPBM binding intensity (ln)” value stood at 8.85 ± 0.45.

On to “ATATCTAAATATATTACACACAGATATCTTCCTATA [CACACA_site3701]”, for which the “gcPBM binding intensity (ln)” value worked out at 9.09 ± 0.38.

In the case of “AGAGAAAAATATTTGGACAAAAATAATATAATATAT [CACACA_negctrl_site656]”, the “gcPBM binding intensity (ln)” value was 8.7 ± 0.48.

As for “ATAAAGGAATTTTATACACACAACATATAAATATAT [CACACA_site7365]”, the “gcPBM binding intensity (ln)” value came out at 9.02 ± 0.4.

On to “ATTCGTATGAGCATAACACACAATATCGATATTTCT [CACACA_site4165]”, for which the “gcPBM binding intensity (ln)” value was 9.06 ± 0.41.

Regarding “TCTTTTCAATTATCCTATATTCTTTTATTTTTAATT [GTGCAC_negctrl_site326]”, the “gcPBM binding intensity (ln)” value was found to be 8.69 ± 0.52.

Regarding “CATACACCCATACATACACACATACATACACCCATA [CACACA_site5124]”, the “gcPBM binding intensity (ln)” value is 9.56 ± 0.31.

For the sequence “ATAAAACAACAAAGAAAATGAAAAAGTAAAAACATA [CACACA_negctrl_site596]”, the “gcPBM binding intensity (ln)” value was 8.88 ± 0.46.

For “TATTTATAAAAAGATTGTACATTTTTTATTATTGTA [XGTACX_site6016]”, the “gcPBM binding intensity (ln)” value is 8.38 ± 0.59.

As to “TCCTATAATAACGTCACACATTAAATTTAATAAATT [CACACA_site4506]”, the “gcPBM binding intensity (ln)” value was 8.56 ± 0.42.

Regarding “AGTGCATACATGAATTGTACTTTAAAATAAATTCTA [XGTACX_site8156]”, the “gcPBM binding intensity (ln)” value was 8.59 ± 0.38.

Take “AAAAAAAAAAAAAAAACACACATATATCTATAATAT [CACACA_site6665]”: the “gcPBM binding intensity (ln)” value worked out at 8.8 ± 0.4.

Take “CATTATTTATTTTAATGTACTTATTTTTAAATTGGT [XGTACX_site8038]”: the “gcPBM binding intensity (ln)” value is 8.53 ± 0.47.

Regarding “TATACAAAATATTTTACACACACATATATATACATA [CACACA_site2616]”, the “gcPBM binding intensity (ln)” value was 9.33 ± 0.24.

On to “AATTAAAATACAAATGTATGCATGTCTCATATAGAA [TGCATGCA_site822]”, for which the “gcPBM binding intensity (ln)” value was determined as 8.78 ± 0.43.

As for “TTACGAATTACATATTGTACATATGCACAATTTTAA [XGTACX_site6802]”, the “gcPBM binding intensity (ln)” value was 8.69 ± 0.35.

For “TACATAATTTAAAATTTTATAAGTTGTAATTCGTTT [XGTACX_negctrl_site308]”, the “gcPBM binding intensity (ln)” value worked out at 8.48 ± 0.49.

Regarding “AGAAATTATAAATACCTACACACTTATCAAAATAAA [CACACA_site2264]”, the “gcPBM binding intensity (ln)” value was determined as 8.76 ± 0.5.

With “TAAGACATGATATATACACACCTTGTTTTAATTTTC [CACACA_site5282]”, the “gcPBM binding intensity (ln)” value stood at 8.86 ± 0.45.

In the case of “TATATCTGTAAATGCACACATATGTGGATATACTTA [CACACA_site5013]”, the “gcPBM binding intensity (ln)” value turned out to be 9.05 ± 0.31.

As for “GTTCATTCATTTTAATGTACAAATTTAACTTTTTCT [XGTACX_site680]”, the “gcPBM binding intensity (ln)” value was 8.56 ± 0.44.

In the case of “TCTAATAATATATACACACACATATATATTTATATA [CACACA_site2032]”, the “gcPBM binding intensity (ln)” value is 9.06 ± 0.33.

For “TGCTACATTCTATGTACACACATATACATATATATA [CACACA_site893]”, the “gcPBM binding intensity (ln)” value came out at 8.96 ± 0.3.

Regarding “TATAAATATAAATACACACACATATAGATTATAGAT [CACACA_site6429]”, the “gcPBM binding intensity (ln)” value was 9.5 ± 0.38.

“GATAAAGTAAAAATATGTACATATATATTTTAAGTT [XGTACX_site6439]”: the “gcPBM binding intensity (ln)” value stood at 8.88 ± 0.56.

Consider “GCTACGTAAAAAATATGTACATATGAAATATTTTGC [XGTACX_site5111]”, for which the “gcPBM binding intensity (ln)” value worked out at 8.86 ± 0.3.

As to “TTATATATCTATAATACACACATAATAATATATTTA [CACACA_site7423]”, the “gcPBM binding intensity (ln)” value was 8.65 ± 0.34.

As for “TTTCATTGGTTTATAAAATTATGAGATCTTAAAGAC [CACACA_negctrl_site1484]”, the “gcPBM binding intensity (ln)” value was determined as 8.26 ± 0.4.

For the sequence “TCTGTAAAGTAATGGACACACAATATATCCATTTAT [CACACA_site1536]”, the “gcPBM binding intensity (ln)” value came to 8.88 ± 0.39.

For the sequence “GAATAATATGGACATACACACATATACATACAGATA [CACACA_site5200]”, the “gcPBM binding intensity (ln)” value was 9.35 ± 0.42.

With “ATATATATATATATATGTACATATATTTATATTTAT [XGTACX_site6179]”, the “gcPBM binding intensity (ln)” value is 9.43 ± 0.13.

As to “ATGCATAAATTTTGAAGTACAAAAAAAAAAAATAAA [XGTACX_site7282]”, the “gcPBM binding intensity (ln)” value worked out at 8.61 ± 0.52.

With “ATACATATATAAATACGTACATATATAATTATATAT [XGTACX_site8178]”, the “gcPBM binding intensity (ln)” value came to 9.01 ± 0.41.

Regarding “AAATGAGAAGAAATACGTACATATAATAAAATAATT [XGTACX_site4439]”, the “gcPBM binding intensity (ln)” value was 9.04 ± 0.46.

Consider “CATGTAATATTAAACACACACTCATATAACTCAATA [CACACA_site4212]”, for which the “gcPBM binding intensity (ln)” value came out at 9.13 ± 0.33.

Source of the values: the supplement of paper PMC11417369.
